According to PubChem BioAssay AID1346428 (National Center for Advancing Translational Sciences (NCATS), 2018):
Among all 48,000 compounds or so, about 1,200 (2.5%) were called active. Not shown: some 2% with an inconclusive outcome.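 How the source made its calls: active means activation of at least 60% and not above a set upper limit (about 1 call in 100 departs from these limits); inconclusive means activation of 40% to 60%, or above that upper limit; inactive means activation under 40%.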 The list shows a part of the results.

Biological target: Probable G-protein coupled receptor 32 (Homo sapiens) (UniProt O75388)
Chain of UniProt O75388 (O75388 whole entry, looked up): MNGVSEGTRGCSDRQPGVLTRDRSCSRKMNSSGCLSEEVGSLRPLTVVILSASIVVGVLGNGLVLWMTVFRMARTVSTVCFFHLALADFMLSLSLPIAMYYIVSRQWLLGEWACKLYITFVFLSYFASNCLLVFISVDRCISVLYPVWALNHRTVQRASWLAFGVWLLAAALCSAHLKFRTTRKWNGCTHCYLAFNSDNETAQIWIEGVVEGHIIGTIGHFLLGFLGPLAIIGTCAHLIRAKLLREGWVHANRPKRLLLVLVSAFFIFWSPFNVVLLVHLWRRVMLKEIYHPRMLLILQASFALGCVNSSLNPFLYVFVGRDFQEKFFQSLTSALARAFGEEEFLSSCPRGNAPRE
Assay: qHTS for Agonists of Human Resolvin D1 Receptor DRV1; further: 0% is about no effect
Settings: CHO-K1 GPR32 beta-arrestin PathHunter luminescence, 90 min; at 76.9 µM; hits give high values; zero percent set by DMSO-only wells
Outline: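 Step 1: seed CHO-K1 GPR32 beta-arrestin cells, 2,500/well, overnight at 37 °C. Step 2: add compounds, 90 min at 37 °C. Step 3: detection reagent, 1 h ambient, then luminescence.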

activation, inactive:
COc1cc(-c2cc(OC)c3c(C)oc(C)c3c(=O)c2)ccc1OC(=O)c1ccccc1C -20.8%, O=C(CN1C(=O)C(c2ccc(F)cc2)=NC12CCCCCC2)Nc1ccc(F)c(Cl)c1 -6.96%, Cc1ccc2c(=O)cc(C(=O)Nc3c(C)n(C)n(-c4ccccc4)c3=O)oc2c1C -2.09%, CCC(=O)NC1CC(=O)N(c2ccc3c(c2)OCCO3)C1 (stereo not drawn) -11.3%, COc1ccccc1NC(=O)Cn1c(=O)n(Cc2ccco2)c(=O)c2oc3ccccc3c21 -15%, CCCOc1ccc(NC(=O)CC2C(=O)N(c3ccccc3)C(=O)N2CCC(C)C)cc1 (stereo not drawn) -16.9%, COc1cc(C2c3c(-c4ccccc4O)n[nH]c3C(=O)N2Cc2ccncc2)ccc1O (stereo not drawn) -1.7%, CCc1ccc(NC(=O)C2CCN(c3cc(C)nc4c(-c5ccc(Cl)cc5)c(C)nn34)CC2)cc1 11.4%, COc1cccc(CNC(=O)CC(c2ccc(F)cc2)N2Cc3ccccc3C2=O)c1 (stereo not drawn) -26%, Cc1ccccc1NC(=O)c1ccccc1NC(=O)c1ccccc1Cl -20.7%, CCc1ccc(NC(=O)CSc2ccc3nnc(CCNS(=O)(=O)c4ccc(OC)cc4)n3n2)cc1 -12.6%, Cc1cc(OCCCSc2nc(-c3ccc(C(C)(C)C)cc3)nc3cc(=O)[nH]n23)ccc1Cl -34.8%, COc1cc(Cl)c(NC(=O)C2CCN(S(=O)(=O)c3c(C)noc3/C=C/c3ccccc3F)CC2)c(OC)c1 -5.27%, CC(C)c1ccc(NC(=O)CCCc2nc(-c3ccc(Cl)cc3)no2)cc1 2.93%, Cc1nc2ccc(S(=O)(=O)CCC(=O)Nc3ccc(F)cc3C)cc2s1 3.53%, Cc1nc(N2CCCC2)c2c(C(=O)N3CCN(c4cccc(C)c4C)CC3)c(C)oc2n1 -33.2%, CC(C)c1ccccc1NC(=O)CN1C(=O)c2cccc3cccc1c23 5.36%, O=C(CSc1nc(-c2ccccc2)[nH]c1-c1ccccc1)Nc1ccc2c(c1)OCCO2 -8.72%, Cc1ccc(Nc2cc(C)c(C#N)c3nc4ccccc4n23)cc1Cl 9.64%, CCCSCCCNC(=O)c1ccc2c(c1)nc1n2CCCCC1 -13%, CN(CC(=O)Nc1ccccc1Cl)S(=O)(=O)c1ccc(C(=O)N2CCOCC2)s1 0.249%, COc1ccc(S(=O)(=O)N2CCN(Cc3ccc4c(c3)OCO4)CC2)cc1OC -3.52%, CC(C)c1cc(-c2nc(-c3ccccc3)no2)n[nH]1 -2.58%
